The source of these data is the supplement of paper PMC8285479.

For this assay, the system named is NCI-H1944. Nature of the assay: normalised cell viability (NPI; 0 = phenylarsine oxide control, 1 = DMSO control) (fraction of DMSO control); NCI-H1944 is a non-small cell lung cancer line; higher = more viable cells (less compound toxicity). Conditions: 6 days.
Where [1] appears, read: glucocorticoid arm: hydrocortisone 2.75 uM co-treatment, compound 1 µM.
[2] abbreviates: glucocorticoid arm: hydrocortisone 2.75 uM co-treatment, compound 5 µM.
Setting [3] is: glucocorticoid arm: hydrocortisone 2.75 uM pre-treated 2 days and continued, compound 1 µM.
[4] abbreviates: glucocorticoid arm: hydrocortisone 2.75 uM pre-treated 2 days and continued, compound 5 µM.
[5] abbreviates: glucocorticoid arm: vehicle, compound 1 µM.
Where [6] appears, read: glucocorticoid arm: vehicle, compound 5 µM.

Each structure is given as a SMILES string. Counter-ions that a name gives are not always drawn. ± gives the standard deviation of the averaged measurements. In all, about 1,900 compounds were measured (“normalised cell viability (NPI; 0 = phenylarsine oxide control, 1 = DMSO control)”: median about 1, lowest 2% from about 0.039 on). Some of the results follow.
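Also: CTB read-out in 384-well plates, mean of triplicate wells, normalised per plate against 1 µM phenylarsine oxide and 0.1% DMSO, compounds added 24 h after seeding.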

On to `CC1CCN=C(N)S1` (racemic) [(±)-AMT hydrochloride], for which the normalised cell viability by setting is: under setting [1], 0.982 ± 0.015; under setting [2], 0.968 ± 0.015; under setting [3], 0.9923 ± 0.0067; under setting [4], 0.975 ± 0.0071; under setting [5], 0.9907 ± 0.0095; under setting [6], 0.9677 ± 0.0046.

As to `CNC(=O)c1nn(C)c2c1C(C)(C)Cc1cnc(Nc3ccc(N4CCN(C)CC4)cc3)nc1-2`, the normalised cell viability was 0.485 ± 0.019 under setting [1]; 0.306 ± 0.002 under setting [2]; 0.549 ± 0.019 under setting [3]; 0.424 ± 0.013 under setting [4]; 0.282 ± 0.0098 under setting [5]; 0.126 ± 0.0072 under setting [6].

Take `CC(=O)NC(C(=O)O)C(C)(C)SN=O` (stereo not given) [S-Nitroso-N-acetylpenicillamine]: the normalised cell viability worked out at 0.998 ± 0.014 under setting [1]; 1 ± 0.026 under setting [2]; 1.01 ± 0.011 under setting [3]; 0.987 ± 0.023 under setting [4]; 0.9937 ± 0.0011 under setting [5]; 0.9943 ± 0.0055 under setting [6].

With `CC(C)(F)C[C@H](N[C@@H](c1ccc(-c2ccc(S(C)(=O)=O)cc2)cc1)C(F)(F)F)C(=O)NC1(C#N)CC1` [Odanacatib (MK 0822)], the normalised cell viability by setting is: under setting [1], 0.983 ± 0.023; under setting [2], 1.03 ± 0.023; under setting [3], 1 ± 0.017; under setting [4], 1.04 ± 0.011; under setting [5], 1.003 ± 0.0064; under setting [6], 1 ± 0.013.

For the molecule `O=c1[nH]c(=O)n([C@H]2C[C@H](O)[C@@H](CO)O2)cc1F` [Floxuridine], the normalised cell viability is, setting by setting: under setting [1], 0.36 ± 0.036; under setting [2], 1.07 ± 0.026; under setting [3], 0.52 ± 0.019; under setting [4], 1.05 ± 0.017; under setting [5], 0.272 ± 0.011; under setting [6], 1.01.

`CNNCc1ccc(C(=O)NC(C)C)cc1` [Procarbazine hydrochloride; Procarbazine]: the normalised cell viability by setting is: under setting [1], 1.01 ± 0.011; under setting [2], 0.905 ± 0.032; under setting [3], 1.013 ± 0.0058; under setting [4], 0.963 ± 0.013; under setting [5], 1.001 ± 0.0085; under setting [6], 0.9143 ± 0.0055.

Regarding `NS(=O)(=O)c1cc2c(cc1Cl)NCNS2(=O)=O` [Hydrochlorothiazide], the normalised cell viability worked out at 1.001 ± 0.0076 under setting [1]; 0.985 ± 0.0061 under setting [2]; 1.01 ± 0.018 under setting [3]; 1 ± 0.025 under setting [4]; 0.989 ± 0.01 under setting [5]; 0.991 ± 0.004 under setting [6].

For the molecule `O=C1C(=O)N(Cc2ccc(Cl)c(Cl)c2)c2ccccc21` [Apoptosis Activator 2], the normalised cell viability reads like this: under setting [1], 0.987 ± 0.015; under setting [2], 1.01 ± 0.018; under setting [3], 0.998 ± 0.011; under setting [4], 1.02 ± 0.016; under setting [5], 0.9993 ± 0.0059; under setting [6], 1.002 ± 0.0084.

With `C[N+]1(C)CCC(=C(c2ccccc2)c2ccccc2)CC1` [Diphemanil Methylsulfate], the normalised cell viability worked out at 1.03 ± 0.015 under setting [1]; 0.995 ± 0.035 under setting [2]; 1.03 ± 0.015 under setting [3]; 1.02 ± 0.026 under setting [4]; 1.013 ± 0.0058 under setting [5]; 0.995 ± 0.0087 under setting [6].

Consider `CN(C)CCc1c[nH]c2ccc(C[C@H]3COC(=O)N3)cc12` [Zolmitriptan], for which the normalised cell viability was 1.02 ± 0.022 under setting [1]; 0.985 ± 0.025 under setting [2]; 1.03 ± 0.01 under setting [3]; 1.02 ± 0.011 under setting [4]; 1.007 ± 0.0058 under setting [5]; 0.9937 ± 0.0078 under setting [6].

Take `CN(C)CCC=C1c2ccccc2C=Cc2ccccc21` [Cyclobenzaprine hydrochloride]: the normalised cell viability under setting [1] amounted to 0.998 ± 0.011; the normalised cell viability under setting [2] came out at 0.986 ± 0.021; the normalised cell viability under setting [3] was determined as 1.01; the normalised cell viability under setting [4] was found to be 1.02 ± 0.014; the normalised cell viability under setting [5] was determined as 0.997 ± 0.015; the normalised cell viability under setting [6] amounted to 0.9983 ± 0.0029.

As to `COc1cc2c(cc1OC)[C@@H](c1ccccc1)CN(C)CC2`, the normalised cell viability under setting [1] came out at 0.9913 ± 0.006; the normalised cell viability under setting [2] was determined as 1.023 ± 0.0058; the normalised cell viability under setting [3] amounted to 1.02 ± 0.011; the normalised cell viability under setting [4] was determined as 1.01 ± 0.019; the normalised cell viability under setting [5] was found to be 0.9883 ± 0.0015; the normalised cell viability under setting [6] is 0.9863 ± 0.0055.

Turning to `NC(=O)c1ncn([C@@H]2O[C@H](CO)[C@@H](O)[C@H]2O)c1N` [Acadesine], the normalised cell viability stood at 1.01 ± 0.015 under setting [1]; 1 ± 0.012 under setting [2]; 1.02 ± 0.011 under setting [3]; 1.02 ± 0.041 under setting [4]; 0.998 ± 0.014 under setting [5]; 0.9957 ± 0.0075 under setting [6].

For the molecule `CC1=C(/C=C/C(C)=C/C=C/C(C)=C/C(=O)Nc2ccc(O)cc2)C(C)(C)CCC1` [Retinoic acid p-hydroxyanilide], the normalised cell viability under setting [1] is 1.01; the normalised cell viability under setting [2] worked out at 1.03 ± 0.026; the normalised cell viability under setting [3] was determined as 0.9903 ± 0.0021; the normalised cell viability under setting [4] came to 1.07 ± 0.017; the normalised cell viability under setting [5] amounted to 0.999 ± 0.0017; the normalised cell viability under setting [6] is 0.963 ± 0.005.

`C[C@@H]1C(=O)O[C@H]2C[C@@]34[C@H]5C[C@@H](C(C)(C)C)[C@]36[C@@H](OC(=O)[C@@H]6O)O[C@@]4(C(=O)O5)[C@]21O` [Ginkgolide A]: the normalised cell viability is, setting by setting: under setting [1], 0.9947 ± 0.0084; under setting [2], 0.986 ± 0.01; under setting [3], 0.994 ± 0.016; under setting [4], 0.997 ± 0.02; under setting [5], 1.002 ± 0.0072; under setting [6], 0.9947 ± 0.0051.

Regarding `CC1=C(C(=O)OC2CCCCC2)C(c2ccc([N+](=O)[O-])cc2)C2=C(CC(C)(C)CC2=O)N1` (stereo not given), the normalised cell viability is, setting by setting: under setting [1], 1.03 ± 0.025; under setting [2], 1.02 ± 0.023; under setting [3], 1.03 ± 0.015; under setting [4], 1.02 ± 0.026; under setting [5], 1.017 ± 0.0058; under setting [6], 1.003 ± 0.0058.

In the case of `CC(=O)Oc1cc(C(C)C)c(OCCN(C)C)cc1C` [Moxisylyte hydrochloride], the normalised cell viability runs as follows: under setting [1], 0.9967 ± 0.0058; under setting [2], 0.977 ± 0.052; under setting [3], 1 ± 0.028; under setting [4], 0.964 ± 0.04; under setting [5], 1.01; under setting [6], 1.02 ± 0.028.

Consider `CC(C)N(CCCNC(=O)Nc1ccc(C(C)(C)C)cc1)C[C@H]1O[C@@H](n2cc(Br)c3c(N)ncnc32)[C@H](O)[C@@H]1O`, for which the normalised cell viability reads like this: under setting [1], 1.033 ± 0.0058; under setting [2], 1.1 ± 0.029; under setting [3], 1.03 ± 0.01; under setting [4], 1.063 ± 0.0058; under setting [5], 1.01 ± 0.013; under setting [6], 1.017 ± 0.0058.

`CC1=C(CC(=O)O)c2cc(F)ccc2/C1=C\c1ccc(S(C)(=O)=O)cc1` [Sulindac sulfone]: the normalised cell viability under setting [1] is 1.001 ± 0.0081; the normalised cell viability under setting [2] was 1.02 ± 0.015; the normalised cell viability under setting [3] was 1.01 ± 0.024; the normalised cell viability under setting [4] was found to be 1 ± 0.011; the normalised cell viability under setting [5] was 1.002 ± 0.0072; the normalised cell viability under setting [6] worked out at 1.003 ± 0.0061.

Turning to `NC(N)=NC(=O)c1nc(Cl)c(N2CCCCCC2)nc1N` [5-(N,N-hexamethylene)amiloride], the normalised cell viability was determined as 0.995 ± 0.005 under setting [1]; 0.927 ± 0.015 under setting [2]; 0.9913 ± 0.009 under setting [3]; 1.04 ± 0.021 under setting [4]; 0.974 ± 0.007 under setting [5]; 0.723 ± 0.16 under setting [6].

Turning to `O=C(c1ccc2c(c1)OCCO2)N1CCCCC1`, the normalised cell viability by setting is: under setting [1], 1.005 ± 0.0092; under setting [2], 1 ± 0.017; under setting [3], 1.01; under setting [4], 1 ± 0.017; under setting [5], 0.9913 ± 0.0096; under setting [6], 0.9947 ± 0.0021.

For the molecule `COc1c/c(=C2\C=c3ccccc3=N2)[nH]/c1=C\c1[nH]c(C)cc1C` [Obatoclax mesylate (GX15-070)], the normalised cell viability amounted to 0.972 ± 0.014 under setting [1]; 0.42 ± 0.019 under setting [2]; 1 ± 0.0087 under setting [3]; 1.03 ± 0.015 under setting [4]; 0.564 ± 0.07 under setting [5]; 0.0292 ± 0.0041 under setting [6].

For `CC(C)CN(C)c1nc(N)c(C(=O)N=C(N)N)nc1Cl` [5-(N-Methyl-N-isobutyl)amiloride], the normalised cell viability under setting [1] was 0.998 ± 0.03; the normalised cell viability under setting [2] came to 1.06 ± 0.042; the normalised cell viability under setting [3] came to 1.01 ± 0.01; the normalised cell viability under setting [4] was determined as 1.02 ± 0.021; the normalised cell viability under setting [5] amounted to 1.003 ± 0.0061; the normalised cell viability under setting [6] stood at 1.02.

For the molecule `CC(C)[C@H]1c2ccc(F)cc2CC[C@@]1(CCN(C)CCCc1nc2ccccc2[nH]1)OC(=O)C1CC1`, the normalised cell viability was 0.9943 ± 0.0051 under setting [1]; -0.000718 ± 0.00075 under setting [2]; 1.013 ± 0.0058 under setting [3]; 1.08 ± 0.035 under setting [4]; 0.989 ± 0.0095 under setting [5]; -6.33e-05 ± 0.0017 under setting [6].

For `COc1cc(N2CCC(N)CC2)ccc1Nc1ncc(Cl)c(-c2c[nH]c3ccccc23)n1`, the normalised cell viability runs as follows: under setting [1], 0.381 ± 0.011; under setting [2], 0.326 ± 0.0099; under setting [3], 0.421 ± 0.052; under setting [4], 0.33 ± 0.02; under setting [5], 0.637 ± 0.031; under setting [6], 0.135 ± 0.019.
